Over roughly 110,000 compounds, “z-score” has its median near -0.1; the highest 2% begin near 2. Some of the results follow. Activity calls are given as the source filed them.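 The calls were made as follows: active = z-score in the third read window above 3 or below -3; inactive = the rest.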

The experiment concerns the target Metabotropic glutamate receptor 8 (Rattus norvegicus) (UniProt P70579). Description: mGluR8 Gi/Go-coupled signaling modulation – cell-based, rat, thallium flux, HTS, primary screen (AID 488969). To be noted: HEK293 rat mGluR8, GIRK (G protein-gated inwardly rectifying potassium channel) thallium flux, FluoZin2; at 10 µM; stronger effect = higher value; submaximal glutamate (EC20) added with thallium.
Sequence of UniProt P70579 (P70579 whole entry, looked up): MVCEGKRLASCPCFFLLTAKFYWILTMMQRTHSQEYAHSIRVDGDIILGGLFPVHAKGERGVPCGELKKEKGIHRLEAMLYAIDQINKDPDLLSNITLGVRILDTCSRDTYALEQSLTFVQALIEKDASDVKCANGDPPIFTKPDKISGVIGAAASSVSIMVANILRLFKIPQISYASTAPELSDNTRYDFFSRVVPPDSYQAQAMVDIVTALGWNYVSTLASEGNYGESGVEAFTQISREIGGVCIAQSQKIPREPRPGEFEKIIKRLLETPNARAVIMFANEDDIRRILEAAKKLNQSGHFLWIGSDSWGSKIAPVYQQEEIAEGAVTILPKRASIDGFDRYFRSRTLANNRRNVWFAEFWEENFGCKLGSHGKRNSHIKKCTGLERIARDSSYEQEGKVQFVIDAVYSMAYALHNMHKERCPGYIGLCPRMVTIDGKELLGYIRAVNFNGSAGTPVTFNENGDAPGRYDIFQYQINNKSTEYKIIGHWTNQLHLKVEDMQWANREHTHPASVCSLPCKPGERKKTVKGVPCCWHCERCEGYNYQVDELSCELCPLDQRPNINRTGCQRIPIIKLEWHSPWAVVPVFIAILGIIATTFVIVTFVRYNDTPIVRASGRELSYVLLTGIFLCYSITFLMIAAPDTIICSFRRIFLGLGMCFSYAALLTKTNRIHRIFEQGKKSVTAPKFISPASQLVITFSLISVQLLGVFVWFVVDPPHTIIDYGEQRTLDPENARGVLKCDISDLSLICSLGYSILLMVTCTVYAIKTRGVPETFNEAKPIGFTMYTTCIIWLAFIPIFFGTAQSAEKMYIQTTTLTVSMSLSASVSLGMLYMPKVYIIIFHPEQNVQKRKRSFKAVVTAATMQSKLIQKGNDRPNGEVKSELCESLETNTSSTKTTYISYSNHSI
Take `Nc1ccc2oc3ccc(N)cc3c(=O)c2c1`: the z-score was -0.377.
`Cc1ccc(N(CC(O)CON=C2c3ccccc3-c3ccccc32)S(C)(=O)=O)cc1` (stereo unspecified) displayed a z-score of 0.98.
`Cc1nn(Cc2c(F)c(F)c(F)c(F)c2F)c(C)c1NC(=O)c1ccc(COc2ccccc2Cl)o1` had a z-score of -0.506.
Next, `CCCCN1C(=O)N(C)C2C1N(C)C(=O)N2CCCC` (stereo unspecified): -0.16; `Cc1oc(/C=N/NS(=O)(=O)c2ccccc2)cc1Br`: 1.12; `CCC(=O)N1CCc2cc(S(=O)(=O)CCC(=O)Nc3nc(C)cs3)ccc21`: -0.0859.
Turning to `NC(=O)c1cc(S(=O)(=O)NC2CCCCC2)co1`, the z-score was -0.0283.
Next, `CCC(C)NS(=O)(=O)c1ccc(OCC(=O)N2CCCC2)cc1` (stereo unspecified): 0.125; `CCOc1cc(CNCc2ccccn2)ccc1OCC(=O)NC(C)(C)C`: -0.243.
`O=C1OCC(CO)(CO)N=C1NNc1cc(Cl)ccc1Cl` gave a z-score of -0.197.
For `CCOc1ccccc1OCCCOc1ccc(C)cc1Br`, the z-score is -0.494.
As for `COc1ccc(-c2nnc(SC(C)C(=O)Nc3nccs3)n2-c2ccccc2)cc1OC` (stereo unspecified), the z-score was -1.69.
Regarding `CCOC(=O)c1cc(-c2ccccc2)n(CC(=O)Nc2ccc(OC)c(OC)c2)c1C`, the z-score came to 0.791.
Next, `CCCCc1ccc(Nc2nc(CCC)cc(=O)[nH]2)cc1`: 0.196; `CSc1nncn1/N=C/c1ccccc1F`: -0.418; `Cc1cc(NC(=O)c2c(F)c(F)c(F)c(F)c2F)no1`: 0.46.
Compound `O=C1/C(=C/c2ccc([N+](=O)[O-])cc2)C=C(c2ccccc2)N1c1ccccc1` registered a z-score of 0.032.
Next, `O=C1NC2(CCCc3ccccc32)C(=O)N1CCOc1ccc(Br)cc1` (stereo unspecified): -0.132; `CC(C)(C)NC(=O)C(c1ccco1)N(C(=O)Cn1nnc(-c2ccc(F)cc2)n1)c1ccccc1F` (stereo unspecified): -0.0985; `Cc1nc(NCCN2CCOCC2)c2oc3ccccc3c2n1`: 1.16.
Next, `O=c1oc2cc(OCc3ccc(F)cc3F)ccc2cc1-c1ccccn1`: -0.256; `COC(=O)c1c(C)oc2ccc(NS(=O)(=O)c3cc(OC)ccc3OC)cc12`: 0.169.
Next, `Cc1ccc(C2CC(=O)C=C(NCC(C)C)C2)cc1` (stereo unspecified): -0.142.
On to `COc1cccc(NC(=O)CSc2nnc(-c3ccoc3C)n2-c2ccccc2)c1`, for which the z-score was active: -3.15.
`CC(=O)Nc1ccc(S(=O)(=O)n2cnc3ccccc32)cc1` registered a z-score of -0.791.
Next, `COc1cc(OC)c(OC)cc1/C=N/NC(=O)c1ccc(=O)n(C)c1`: -0.238.
For the compound `O=C(NN1CCCCC1)c1ccccc1`, the z-score is 0.836.
Next, `CC(NC(=O)Nc1cccnc1)(C(F)(F)F)C(F)(F)F`: -0.00545; `Cc1cc(C)c(NC(=S)NC(=O)c2ccc(-c3ccccc3)cc2)c(C)c1`: 0.489; `COc1ccc(NC2=Nc3ccccc3N3C2=Nc2c(c(C)nn2-c2ccc(C)cc2)C3c2cccnc2)cc1` (stereo unspecified): -0.323.
Next, `CCn1c(COc2cccc(C)c2)nnc1SCC(=O)N1CCCC1`: -0.388; `CC1=C(C(=O)OCC(C)C)C(c2cc3c(cc2Br)OCO3)NC(=O)N1C` (stereo unspecified): -1.33; `CCN(CC)c1ccc(NC(=O)c2ccc(Br)o2)c(C)c1`: 0.067.
Next, `O=C(N/N=C\c1cccc(Br)c1)c1ccccc1-n1cccc1`: -0.471; `CCc1cccc2c(C(=O)COC(=O)c3nn(C)c(=O)c4ccccc34)c[nH]c12`: -1.02; `Nc1ccc(-n2nncc2-c2ccc(Cl)cc2)cc1`: -0.392.
In turn, `O=C(Nc1ccccc1OC(F)F)c1ccc(F)cc1` returned a z-score of 0.162.
In the case of `Cc1cc2nc(-c3ccc(NC(=O)C(C)C)cc3)oc2cc1C`, the z-score stood at 0.286.
In turn, `C/C(Cc1ccccc1)=N\NC(=O)CNC(=O)c1cccc(Br)c1` returned a z-score of 0.105.
`CCOC(=O)N1CCN(C(=O)C2CC(=O)N(Cc3ccc(OC)cc3)C2)CC1` (stereo unspecified) registered a z-score of -0.0789.
The compound `COC(=O)c1cc(Cl)c(NC(=O)c2ccco2)cc1OC` displayed a z-score of -0.0432.
Next, `O=C(NC1CCSC1=O)c1ccccc1` (stereo unspecified): 0.917; `CC(C)Cc1nc(Nc2ccc(S(=O)(=O)N3CCCC3)cc2)c2nnn(Cc3ccccc3)c2n1`: 0.659.
Next, `Cc1cccc(NC(=O)c2cc(Cl)ccc2[N+](=O)[O-])c1`: -0.241; `CCCCC(=O)Nc1ccc(C(=O)Nc2ccc(S(=O)(=O)Nc3nccc(C)n3)cc2)cc1`: -0.312; `CC(=O)N1CCN(C(C)=O)C1c1ccccc1`: 0.226.
For the compound `Cc1cccc(Nc2nc(N)nc(CN3CCC(C(N)=O)CC3)n2)c1C`, the z-score is -0.0699.
Next, `CCCc1cc(=O)[nH]c(SCCOC(=O)c2ccccc2)n1`: -0.349.
The compound `O=[N+]([O-])c1cnccc1Nc1ccccc1` gave a z-score of 0.258.
Next, `O=C(N/N=C/c1cccnc1)c1ccc([N+](=O)[O-])cc1Cl`: 0.0971; `c1ccc2cc3[nH]c(CN4CCCCC4)nc3cc2c1`: 0.256; `COC(=O)c1cccc(Nc2cc(C)nc(-c3ccccc3O)n2)c1`: 0.113.
`CCOc1ccc(C(=S)N2CCOCC2)cc1` displayed a z-score of -0.96.
As for `O=C(OCCN1C(=O)c2ccccc2C1=O)c1cccs1`, the z-score stood at 0.871.
In turn, `COc1ccc2oc3cc(C)[n+]([O-])c(-c4ccc(Br)cc4)c3c2c1` displayed a z-score of -0.318.
Next, `Cc1csc(NC(=O)CSc2nc(C(C)C)nc3c2c(=O)n(C)c(=O)n3C)n1`: -0.261; `COc1ccc(-c2cn[nH]c2N)cc1`: 0.0911; `O=c1c2[nH]c3ccc(Cl)cc3c2ncn1Cc1ccccn1`: -0.309.
As for `c1ccc(Cc2nn3c(Cn4cnc5ccccc54)nnc3s2)cc1`, the z-score was -0.232.
Next, `Cc1nnc(SCCC#N)n(CCC#N)c1=O`: 1.64.
As to `COc1ccc(-n2c(C)cc(C(=O)CSc3nnc(-c4ccoc4C)n3C)c2C)cc1`, the z-score stood at 1.15.
For the compound `Nc1nnc(-c2cccnc2)s1`, the z-score is 1.22.
Next, `COC(=O)c1ccccc1NC(=O)Nc1nnc(N2CCC(C)CC2)s1`: 0.108.
Next, `COc1ccc(-n2c(Cn3c(=O)sc4ccccc43)nnc2SCC(=O)N2CCCCC2)cc1`: -0.489.
Next, `CCOC(=O)CCSCC(=O)Nc1nnc(C)s1`: 0.504.
`O=C(NC1CCCCC1)C(c1ccc(F)cc1)N(Cc1cccs1)C(=O)CN1C(=O)c2ccccc2S1(=O)=O` (stereo unspecified) displayed a z-score of 0.916.
In the case of `CCC(=O)N1N=C(c2ccc(C)o2)CC1c1ccc(Br)cc1` (stereo unspecified), the z-score is -0.889.
Next, `COc1cc(OC)c(C#N)c(S(=O)Cc2ccccc2)c1` (stereo unspecified): -0.246; `O=C(c1ccccc1)c1ccc2nc(-c3ccc(NC(=O)c4ccccc4F)cc3)[nH]c2c1`: -0.162; `Cc1cc(C(F)(F)F)c(C#N)c(Sc2ccccc2)n1`: 0.95.
Next, `O=c1cc(N2CCN(Cc3ccccc3)CC2)[nH]c(=O)n1-c1cccc(C(F)(F)F)c1`: 0.278.
In turn, `CCCCCCC(=O)N/N=C/Cc1ccccc1` came in with a z-score of 0.106.
Compound `C=CCSc1[nH]c(=O)cc(C)c1C(N)=O` gave a z-score of 0.533.
Next, `CCCCOc1ccc(C(=O)NCC2(c3ccc(OC)cc3)CCOCC2)cc1`: -0.475; `O=C(O)CCc1ccc(-c2ccccc2)n1NC(=O)c1ccco1`: -0.274; `Cc1nn(CC(=O)NCc2cccc3ccccc23)c(=O)c2ccccc12`: -0.0519.
For `Cc1nnsc1-c1nc2ccccc2[nH]1`, the z-score was found to be 0.291.
Next, `CCc1ccc(C(=O)Cn2ncc(Cl)c(Cl)c2=O)cc1`: -0.347; `CCOC(=O)c1cnc(-n2nc(C)cc2C)nc1N1CCOCC1`: -0.55.
Next, `O=C(O)c1cc(NCc2ccccc2C(F)(F)F)ccc1N1CCOCC1`: -0.168; `Cc1ccc(C)c(-c2cc(C(=O)NCc3cccs3)c3ccccc3n2)c1`: -0.0338; `Cc1ccccc1NC(=O)Cn1c(C)nc2ccc(N)cc2c1=O`: -0.213.
Next, `O=C(COC(=O)c1cccc(N2C(=O)c3ccccc3C2=O)c1)Nc1ccccc1`: active: 5.13; `CSc1ccc(C(=S)N2CCN(CCO)CC2)cc1`: 0.0369; `Cc1ccc(SCc2c(-c3ccccc3)nn(C)c2Cl)cc1`: -0.179.
`CCn1c(SCC(=O)Nc2oc(-c3ccccc3)c(-c3ccccc3)c2C#N)nnc1-c1ccco1` displayed a z-score of -2.7.
Next, `CCCOC(=O)CSC1=C(C#N)C(c2ccccc2OCC)C(C#N)C(=O)N1` (stereo unspecified): -0.653; `O=C(COc1ccc2ccccc2c1)NCCNC(=O)COc1ccc2ccccc2c1`: -0.27.
Next, `COC(=O)c1ccc(NC(=O)CNCc2ccncc2)cc1`: -0.143.
`CCOC(=O)c1sc(NC(=O)CSc2n[nH]c(-c3ccc(Cl)cc3Cl)n2)c(C#N)c1C` displayed a z-score of -0.2.
Next, `Cc1noc(C)c1COc1ccc(C(=O)OCC(=O)N2c3ccccc3NC(=O)C2(C)C)cc1`: -1.16; `CC(Sc1ccc(Cl)cc1)C(=O)NCC1CCCO1` (stereo unspecified): -0.0934.
As for `COc1ccc(C)cc1S(=O)(=O)N1CCC(C(=O)NCCC2=CCCCC2)CC1`, the z-score came out at 0.0645.
Next, `CCOC(=O)N1CCN(S(=O)(=O)c2cc(OCC(=O)NC3CCCCC3)c(C)cc2Cl)CC1`: -0.133; `CCC(C)(C)n1nnnc1C(c1ccc(C)cc1)N(Cc1ccco1)Cc1cccs1` (stereo unspecified): -0.0701.
In turn, `CCOC(=O)N1CCN(C(=O)CN(Cc2ccccc2)S(=O)(=O)c2ccc(OC)c(Cl)c2)CC1` displayed a z-score of -0.545.
Compound `COc1ccc2nc(NC(=O)c3cccc(-c4cc5ccccc5oc4=O)c3)sc2c1` yielded a z-score of 0.372.
Next, `COc1ccc(-n2c(C)nc3cc(C(=O)N4CCOCC4)ccc32)cc1`: 0.377; `N=C1C=CC=C2C1=NC1(CCCCC1)N2O`: 1.08; `CC(C)(C)N/N=C/c1c(O)n(-c2ccc(Cl)cn2)c(=O)c2ccccc12`: -0.269.
Next, `COc1ccc(NC(=O)c2sc(Cl)nc2-c2ccccc2)cc1`: -0.514; `Cc1cc(C)n(Cc2ccc(NC(=O)c3ccc(COc4ccccc4Br)cc3)cc2)n1`: -0.0999.
Turning to `O=C(c1ccc(Cl)cc1)N1CCN(c2ccc([N+](=O)[O-])c(NCc3cccnc3)c2)CC1`, the z-score is -0.47.
Next, `CC[n+]1c(/C=C/N(C)c2ccccc2)oc2ccccc21`: -0.248.
Next, `O=C(O)c1ccc(S(=O)(=O)Nc2ccc(F)c(Cl)c2)cc1`: 0.217; `CCOC(=O)c1nc2nc(-c3cccs3)cc(C(F)(F)F)n2n1`: -0.035.
As for `O=C(NCc1ccccc1)c1cnsn1`, the z-score is -0.0655.
Next, `COc1ccc(C)cc1S(=O)(=O)N(C)CC(=O)Nc1ccc2c(c1)OCO2`: 0.0122; `CCc1ccc2c(c1)C(NC(C)=O)C(=O)N2CC` (stereo unspecified): 0.0709; `O=[N+]([O-])c1ccccc1/C=N/N1CCN(c2ccncc2S(=O)(=O)N2CCCCC2)CC1`: -0.0221.
Next, `CN(C)S(=O)(=O)c1cccn1-c1ncc(C(F)(F)F)cc1Cl`: -0.0754.

Source of the values: PubChem BioAssay AID488969 (Vanderbilt High Throughput Screening Facility, 2010).
